About 220 (0.56%) of roughly 39,000 compounds showed activity. This is one part of the list.
What follows are compounds tested on Escherichia coli K-12 BW25113 (assay: relative growth (OD600 normalised to plate interquartile mean) (fraction); higher = less growth inhibition, active = 0.2 or less). Settings: 50 µM; LB; incubation time: overnight (16-24 h).
With `Cc1ccc(S(=O)(=O)Nc2cccc3c2O[C@H](CN(C)CC2CC2)[C@@H](C)CN([C@H](C)CO)C3=O)cc1` the relative growth was inactive: 0.989. `COc1ccc(C(=O)Nc2ccc3c(c2)C(=O)N(C)[C@@H]2CC[C@H](CC(=O)NCC4CC4)O[C@@H]2CO3)cc1` was tested, and the relative growth was inactive: 0.982. With `C[C@H]1CN([C@@H](C)CO)C(=O)c2cc(NS(=O)(=O)c3cccs3)ccc2O[C@H]1CN(C)S(=O)(=O)c1ccc(F)cc1` the relative growth was inactive: 0.921. For `Cc1ccc(S(=O)(=O)N(C)C[C@@H]2OCCCC[C@H](C)Oc3ccc(NS(=O)(=O)c4ccc(F)cc4)cc3C(=O)N([C@H](C)CO)C[C@H]2C)cc1`, the relative growth was inactive: 1.01. For `C[C@H]1CN([C@@H](C)CO)C(=O)Cc2cc(NC(=O)Nc3ccc(C(F)(F)F)cc3)ccc2O[C@@H]1CN(C)Cc1ccncc1`, the relative growth was inactive: 1. `CC(C)Cn1cnc2c1c(=O)n(C)c(=O)n2C` was tested, and the relative growth was inactive: 0.964. `CC(C)CC#Cc1cnc2c(c1)C(=O)N([C@H](C)CO)C[C@H](C)[C@@H](CN(C)C(=O)c1ccc3c(c1)OCO3)O2` was tested, and the relative growth was inactive: 0.987. For `COc1ccc2c3c(n(c2c1)C)[C@@H](CO)N(C[C@]13CCN(CC1)C(=O)Nc1cccc(c1)F)S(=O)(=O)C`, the relative growth was inactive: 0.991. With `C[C@@H]1CN([C@H](C)CO)C(=O)c2c(c3ccccc3n2C)-c2ccccc2CO[C@@H]1CN(C)Cc1ccccc1C(F)(F)F` the relative growth was inactive: 0.979. `COc1ccc(S(=O)(=O)Nc2ccc3c(c2)C(=O)N([C@H](C)CO)C[C@@H](C)[C@H](CN(C)C(=O)Nc2cccc4ccccc24)OCCCC[C@@H](C)O3)cc1` was tested, and the relative growth was inactive: 0.993. With `COc1ccc(NC(=O)Nc2ccc3c(c2)C(=O)N([C@@H](C)CO)C[C@H](C)[C@H](CN(C)C(=O)Nc2ccc(C(F)(F)F)cc2)OCCCC[C@H](C)O3)cc1` the relative growth was inactive: 0.973. In the case of `C[C@@H]1CN([C@H](C)CO)C(=O)c2cc(NS(C)(=O)=O)ccc2O[C@@H](C)CCCCO[C@H]1CN(C)Cc1ccc(Cl)c(Cl)c1`, the relative growth is reported as inactive: 0.987. With `C[C@@H]1CN([C@@H](C)CO)C(=O)c2cc(NC(=O)Nc3cccc4ccccc34)ccc2O[C@@H]1CN(C)S(=O)(=O)c1ccc(F)cc1` the relative growth was inactive: 0.949. `CC(C)(O)c1ccccc1CC[C@@H](SCC1(CC(=O)O)CC1)c1cccc(/C=C/c2ccc3ccc(Cl)cc3n2)c1` was tested, and the relative growth was inactive: 1.15. In the case of `O=C(C[C@@H]1C=C[C@H](NC(=O)c2cccc(F)c2)[C@@H](CO)O1)NCCN1CCCC1`, the relative growth is reported as inactive: 0.965. In the case of `C[C@@H]1CCCCO[C@@H](CN(C)C(=O)Nc2ccccc2)[C@@H](C)CN([C@@H](C)CO)C(=O)c2cc(NC(=O)Nc3ccc(F)cc3)ccc2O1`, the relative growth is reported as inactive: 1.01. In the case of `COc1ccccc1CNC(=O)C[C@@H]1C[C@@H]2c3cc(NS(=O)(=O)c4ccc(F)cc4)ccc3O[C@@H]2[C@H](CO)O1`, the relative growth is reported as inactive: 0.99. With `C[C@H]1CN([C@@H](C)CO)C(=O)c2cc(C#CC3(O)CCCC3)cnc2O[C@H]1CN(C)C(=O)Cc1ccccc1` the relative growth was inactive: 0.985. For `C[C@@H]1CN([C@@H](C)CO)C(=O)Cc2cc(NS(=O)(=O)c3cn(C)cn3)ccc2O[C@H]1CN(C)S(=O)(=O)c1ccccc1`, the relative growth was inactive: 1.01. For `O=C(C[C@H]1CC[C@@H](NS(=O)(=O)c2ccccc2)[C@H](CO)O1)NCc1ccncn1`, the relative growth was inactive: 1.01. For `C[C@@H]1CCCCO[C@@H](CN(C)C(=O)NC2CCCCC2)[C@H](C)CN([C@H](C)CO)C(=O)c2cc(NC(=O)Nc3ccc4c(c3)OCO4)ccc2O1`, the relative growth was inactive: 1.02. With `COc1ccc(NC(=O)Nc2ccc3c(c2)C(=O)N([C@@H](C)CO)C[C@H](C)[C@H](CN(C)C(=O)Nc2ccc4c(c2)OCO4)OCCCC[C@@H](C)O3)cc1` the relative growth was inactive: 1.04. With `C[C@@H]1CCCCO[C@H](CN(C)Cc2ccncc2)[C@@H](C)CN([C@H](C)CO)C(=O)c2cc(NC(=O)Nc3ccc(F)cc3)ccc2O1` the relative growth was inactive: 0.994. In the case of `C[C@H](CO)N1C[C@H](C)[C@@H](CN(C)C(=O)Nc2ccccc2)Oc2cc(C#CC3(O)CCCC3)ccc2S1(=O)=O`, the relative growth is reported as inactive: 1.02. For `CC(C)C[C@@H]1NC(=O)[C@H]2C[C@@H](C(=O)NCCCCCCNC(=O)CS)[C@@H](c3ccc(O)cc3)N2C1=O`, the relative growth was inactive: 1.01. For `C[C@H]1CN([C@@H](C)CO)C(=O)c2cc(NC(=O)CCCN(C)C)ccc2O[C@H]1CN(C)C(=O)Nc1ccccc1`, the relative growth was inactive: 0.992. For `C[C@H](CO)N1C[C@H](C)[C@H](CN(C)Cc2ccc3c(c2)OCO3)Oc2ccc(NC(=O)c3ccncc3)cc2CC1=O`, the relative growth was inactive: 0.985. For `COc1ccccc1S(=O)(=O)N[C@H]1C=C[C@@H](CC(=O)N2CCOCC2)O[C@H]1CO`, the relative growth was inactive: 0.989. `CN1CCN(C(=O)[C@@H]2[C@@H](CO)[C@@H]3Cn4c(cccc4=O)[C@H]2N3S(=O)(=O)c2ccccc2F)CC1` was tested, and the relative growth was inactive: 1.01. With `Cc1ccc(-c2cccc(C(=O)N[C@H]3CC[C@@H](N)CC3)c2)o1` the relative growth was inactive: 0.976. In the case of `CC(=O)C1(O)CCC2C3CCC4=CC(=O)CCC4(C)C3CCC21C` (configuration not stated), the relative growth is reported as inactive: 1.03. For `CC(=O)N[C@H]1C/C=C/C[C@@H](CC(=O)NCc2ccc(Cl)cc2)C(=O)NC[C@@H](c2ccccc2)OC1=O`, the relative growth was inactive: 0.986. In the case of `Cc1ccccc1CCCCN`, the relative growth is reported as inactive: 1.02. In the case of `O=C(C[C@H]1C[C@H]2c3cc(NC(=O)Nc4ccc(C(F)(F)F)cc4)ccc3O[C@H]2[C@@H](CO)O1)NCCc1ccccc1`, the relative growth is reported as inactive: 0.951. With `Cc1noc(C)c1NC(=O)Nc1ccc2c(c1)C(=O)N([C@@H](C)CO)C[C@@H](C)[C@H](CN(C)Cc1ccc(C(=O)O)cc1)OCCCC[C@@H](C)O2` the relative growth was inactive: 1.01. `C[C@H]1CCCCO[C@H](CN(C)C(=O)CCC(F)(F)F)[C@@H](C)CN([C@@H](C)CO)C(=O)c2cc(NC(=O)CCC(F)(F)F)ccc2O1` was tested, and the relative growth was inactive: 0.975. `CO[C@@H]1CN(C)C(=O)c2ccc(NS(=O)(=O)c3cn(C)cn3)cc2OC[C@H](C)N(Cc2cccc(F)c2)C[C@H]1C` was tested, and the relative growth was inactive: 1.02.
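Note: static incubation at 37 °C against the wild-type strain, values averaged over two biological replicates.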
